Reference: IntAct's records for PubMed 21179087

B1: Myeloid differentiation primary response protein MyD88 (Homo sapiens), Q99836-1 (parent)
chain: MAAGGPGAGSAAPVSSTSSLPLAALNMRVRRRLSLFLNVRTQVAADWTALAEEMDFEYLEIRQLETQADPTGRLLDAWQGRPGASVGRLLELLTKLGRDDVLLELGPSIEEDCQKYILKQQQEEAEKPLQVAAVDSSVPRTAELAGITTLDDPLGHMPERFDAFICYCPSDIQFVQEMIRQLEQTNYRLKLCVSDRDVLPGTCVWSIASELIEKRCRRMVVVVSDDYLQSKECDFQTKFALSLSPGAHQKRLIPIKYKAMKKEFPSILRFITVCDYTNPCTKSWFWTRLAKALSLP

Variants of: B1
Settings: with irak1_human IRAK1, P51617

Variant | effect of a mutation on the interaction
S209R | increasing interaction strength
M219T | increasing interaction strength
S224N | increasing interaction strength
P265L | decreasing interaction strength
T287P | disrupting interaction strength
